Assay results from paper PMC10726135.
This is one part of the list. At the low end of the ranking the order means little. The protein was read in a cell extract, so binding may be indirect.

The sequences below were run against T1, HNF4alpha2 (COS-7 nuclear extract) (UniProt P41235) (assay: protein-binding microarray). Details: COS-7 nuclear extract on double-stranded Agilent 4x180k PBM; binding buffer, salt, pH and temperature not given; high values mean tight binding; double strand, one strand shown; sequences stand for … in …GCCTAGGGAGATTAGAGTATCGGTCGA.
T1 sequence: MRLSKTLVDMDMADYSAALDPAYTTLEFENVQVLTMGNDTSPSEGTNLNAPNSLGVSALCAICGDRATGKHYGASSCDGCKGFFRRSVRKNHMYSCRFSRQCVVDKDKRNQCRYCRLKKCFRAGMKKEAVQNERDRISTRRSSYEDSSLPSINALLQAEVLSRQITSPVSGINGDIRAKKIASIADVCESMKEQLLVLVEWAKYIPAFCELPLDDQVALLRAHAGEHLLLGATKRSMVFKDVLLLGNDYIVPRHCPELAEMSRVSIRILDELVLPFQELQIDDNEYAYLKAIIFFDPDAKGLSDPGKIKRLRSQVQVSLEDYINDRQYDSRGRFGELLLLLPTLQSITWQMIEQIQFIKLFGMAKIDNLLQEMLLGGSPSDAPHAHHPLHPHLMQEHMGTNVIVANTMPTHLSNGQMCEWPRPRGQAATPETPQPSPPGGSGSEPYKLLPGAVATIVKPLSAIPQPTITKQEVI

Row | Sequence | binding signal (log2 normalized intensity)
1 | TTTGCCAAAGCATAGCAAGAGTGACCTTTG | 6.6
2 | ATTCTCCAGTCCGAAGGTCCACCCGTCCGC | 2.2
3 | ATTCCCCGACTCCTGGGTGTGAGATAAGGC | 0.414
4 | GCAGGAGGAGGAGCCAGTGAAGACTGAAAA | -1.2
5 | TGCCTTTCCCTTATCAGGACTTTGTGATTA | 2.79
6 | GCCATTTCGGCACCTTCTACACAGCACCCC | 2.98
7 | CAGCACCACCTGCTGGTCAGGAGACTGCTC | -1.1
8 | ATTAGCTTCCCGGCTGTCACAGCCTGGTTC | -1.17
9 | CCTGGGAGGCAGGACCTTGGGAAAGGAGAA | -1
10 | GGAGATAGCCTCTGGGCTGGCTTTAGCTCA | -1.08
11 | AGTAAACAGGGCTGGGATAACCGAGGCTGA | -1.1
12 | TGAACTGATTAGAACATTAAGTCCAAATGC | 1.04
13 | CATGCTGATGGCAAACACCTGGCCAGCGAC | -1.01
14 | GGGTAATAAATAAAGCCCTGGGGTAATAAA | -1.2
15 | CTGGTTGGAATTCCAGTGTTCACATCTGAT | 1.08
16 | GGAGGAAGCAGCGATGGAAGGGATGGGGTG | -1.21
17 | CTCTCTGGACTTCGGACATTCCAGGGAACA | 3.7
18 | GAACCAGAGAAGATTCCAGAGGGAGGGAGG | -1.01
19 | GACTACCAGCCAGTAGGAGTTGGAACGGGG | -1.14
20 | ACATTAAGACCACCTCTATGCACACGTTCA | -1.1
21 | CCTGCTGCACAACGACCCTTGCTCTGTTTT | 2.86
22 | ACACAGACTCCAAAGAATGGAAGGCAGTGT | -0.799
23 | CCCCATATCCAGTCAATCCCGTGGACTTTG | 5.35
24 | GGGTCAGTTTATCGAAAATCCCCCACCATT | 4.17

Row | Sequence | binding signal (log2 normalized intensity)
25 | ACCGTAAAGCCACCCCTTTCTCCTCTCTTT | 1.51
26 | TCATCTGGGCTTTAGGTTTGGTGTTTAATT | 1.72
27 | TGCGTGTACTAAGGTCTTAAGTGTCATTAG | 1.58
28 | TTTTTTTTTTTTTTTGAGATGGAATCTTGC | 0.979
29 | AATCTTGATAGTAGAGCTTATCAAGGCAAC | -0.748
30 | GGCGGACAGCGCCGCCACCCGGTTGGCGCC | -0.85
31 | CTTTTGGCTCCCTGGGGTTAAAATGTTTAC | 1.77
32 | TTTCAAGAACAAACAAATTTAGCAAGACTG | -1.13
33 | GACTTTTTGTAGTTTCAGCTTCTTCCTTGA | 1.22
34 | TCTGAATAGAACTCAGGAAAGATCAGCTGA | -1.21
35 | AGAGTTCCTGACAATTGGCCAAAGTTCAGT | 4.04
36 | CAGCAGATAAGGGCAGAGAGGCTGCCATCC | -1.12
37 | GCCTGTTCACATTCCAGTGTTTCAAAGGAG | -0.114
38 | TCCAGTGGACATTGGCCCTTTGACCTTTAA | 7.47
39 | TCTTATCAGCCATCTCCCCAGGGAGGCCTG | -0.817
40 | GCCCCCAGAGGTTCTAGCCCTGGTGAGTCA | 1.24
41 | AAATTCCAACAGTTGAGAATTCCAGAGATG | -1.19
42 | CTTTAGGACTTTGAACCTTGGGTCTGTAAT | 6.04
43 | ACTTTGAGGTGTTCTCTGGGGTTAGCCAAA | 1.59
44 | CCTTGCATCAGAATCTGGACAGTGTAAGAT | 1.03
45 | TATAGTCACTATACAACTAGGCTACATGAT | -1.13
46 | CTGCAGGGTAGGCAGACAGGTTGGAGACGC | -0.955
47 | AGGAGAAGAATGAAAGCCAAGGCAGATATG | -1.11
48 | GCTCTTTAGGAATGCAACTCTAACCTTTAC | 2.93

Row | Sequence | binding signal (log2 normalized intensity)
49 | GGAAATAATGCGACTTGCCTTGTGTACTCT | 1.82
50 | CTCCCGGGGAGGTCAACCAGGGAAATTACC | -1.19
51 | CAGGTAGAGAGCAATCATGCACCTGCGGAT | -1.25
52 | CTGGGGAGACTCTCTCTCCTCTCCAGCCCA | 0.968
53 | GCAAAGGTGAGGGGAGCGTAAAACCACTGG | -1.12
54 | TTTTATGTGCTCCATCAGTGGTAAACAGAA | 0.695
55 | GTAGTTGCAAATATTGCAGTGTAGATTAAA | 0.397
56 | TAAAATGAGACTTCCCAGCTGCTGGTCAAA | -0.13
57 | TATGGCTTATACTTGAGGTATGATGCATCC | 1.53
58 | CAATTGGGAATGTCACAGGGGCCATGCAGG | -1.02
59 | TGCAAATATTGCAGTGTAGATTAAATCCTC | -0.842
60 | ACACTTAGAAAATGCCCTCAATCAAAGTGA | -0.98
61 | GCTGACATGCTCTTGGAATGTTGAACCTTT | 4.24
62 | TGATCAGAAAAGAAAGTGAGGAATGCAACC | -1.05
63 | GGGTGGGCCTGGGGGGAGACAACTGCAACA | -1.23
64 | ACAGGGCTTGGGGTGGGGTTGGAGTCCAGA | 1.25
65 | CTGACACTGTCCCAGCTGAGATTCAGAATA | -1.23
66 | TGTGTGCACAAGAGGGTGGGAGTTCAGGGG | -1.22
67 | AGTTCCCAGCCCTTCACCAGAGCCGTCTGG | -0.946
68 | TTCATCCCCACCCCCACTGCCTGACCCCAA | 7.59
69 | TCCCAATTTATCTTTCCAGATTGTTCTATT | -0.0836
70 | AATGCCTAAACCAGGATCCAGTCCTCACCC | -1.16
71 | AATTAAGGAAGATGGTGCAAGTGGCTATGG | 0.889
72 | GAAAAGTAATGAAAGGAAATCATTCCAGAA | -0.446
